The other results are listed elsewhere or left out.
The compounds below were run on HepG2 (assay: cytotoxicity call (relative viability < 0.9)). Conditions: 10 µM.

| Structure (SMILES) | cytotoxicity call |
| --- | --- |
| Cc1noc(C)c1NC(=O)N[C@@H]1CC[C@@H](CC(=O)NCCCN(C)C)O[C@H]1CO | inactive |
| COc1ccc2c3c([nH]c2c1)[C@@H](CO)N(C[C@]13CN(Cc2ccccc2Cl)C1)S(=O)(=O)c1cn(cn1)C | inactive |
| O=C(CN1CCOCC1)NCC[C@@H]1CC[C@H](NC(=O)Cc2ccccn2)[C@H](CO)O1 | inactive |
| O=C(C1=C[C@H](c2coc3ccccc3c2=O)C[C@H](OCCCCO)O1)N1CCOCCOCCOCCOCC1 | inactive |
| COC(=O)C1=CO[C@@H](O[C@@H]2O[C@H](CO)[C@@H](O)[C@H](O)[C@H]2O)/C(=C\CO)[C@@H]1CC(=O)OCCc1ccc(O)cc1 | inactive |
| C[C@@H]1CN([C@@H](C)CO)C(=O)c2cccc(NC(=O)Nc3ccccc3)c2O[C@@H]1CN(C)Cc1ccc(-c2ccccc2)cc1 | active |
| C[C@@H]1CN([C@H](C)CO)C(=O)c2cc(NC(=O)C3CC3)ccc2O[C@H]1CN(C)Cc1ccc(-c2ccccc2)cc1 | inactive |
| COc1cccc(NC(=O)N(C)C[C@H]2OCc3ccccc3-c3c(n(C)c4ccccc34)C(=O)N([C@H](C)CO)C[C@@H]2C)c1 | inactive |
| CCOC(=O)c1nnn(CC(N)=O)c1C | inactive |
| COc1ccc(C#Cc2ccc([C@H]3[C@H]4CN(S(=O)(=O)c5cn(C)cn5)CCCCN4[C@H]3CO)cc2)cc1 | inactive |
| Nc1ccc(C(=O)N2CCOCC2)cc1 | inactive |
| Cc1cc(C)c(S(N)(=O)=O)cc1S(N)(=O)=O | inactive |
| CC(C)NC(=O)N(C)C[C@H]1Oc2ccc(NC(=O)CCC(F)(F)F)cc2CC(=O)N([C@@H](C)CO)C[C@@H]1C | active |
| NCCn1cccn1 | inactive |
| C[C@@H]1CN([C@@H](C)CO)C(=O)c2cc(N(C)C)ccc2O[C@@H](C)CCCCO[C@H]1CN(C)Cc1ccc(C(=O)Nc2ccccc2N)cc1 | inactive |
| C[C@@H]1CCCCO[C@H](CN(C)C(=O)CCCN(C)C)[C@@H](C)CN([C@@H](C)CO)C(=O)c2cc(NC(=O)Nc3ccc(F)cc3)ccc2O1 | inactive |
| C[C@H](CO)N1C[C@H](C)[C@@H](CN(C)CC2CCCCC2)OCCCC[C@H](C)Oc2ccc(NC(=O)Nc3ccccc3)cc2C1=O | inactive |

The compounds below were run on S. aureus RN4220 (assay: growth inhibition call (relative growth <= 0.2)). Conditions: 50 µM.

| Structure (SMILES) | growth inhibition call |
| --- | --- |
| C[C@@H]1CN([C@H](C)CO)C(=O)c2cc(NS(C)(=O)=O)ccc2O[C@@H]1CN(C)C(=O)NC1CCCCC1 | inactive |
| C[C@H](CO)N1C[C@H](C)[C@@H](CN(C)C(=O)Nc2ccccc2)OCCCC[C@H](C)Oc2ccc(NC(=O)c3ccccc3)cc2C1=O | inactive |
| C=C[C@](C)(O)CC/C=C(\C)C(=O)O[C@@H]1[C@@H](O[C@@](C)(C=C)CC/C=C(\C)C(=O)O[C@H]2C[C@@]3(C(=O)O[C@H]4OC[C@@H](O[C@H]5O[C@@H](CO)[C@@H](O)[C@@H](O[C@H]6O[C@@H](CO)[C@@H](O[C@H]7O[C@@H](CO)[C@@H](O)[C@@H](O)[C@@H]7O)[C@@H](O)[C@@H]6O)[C@@H]5O)[C@@H](O)[C@@H]4O)[C@@H](O)C[C@@]4(C)C(=CC[C@H]5[C@@]6(C)CC[C@@H](O[C@H]7O[C@@H](CO)[C@@H](O[C@H]8O[C@@H](CO)[C@@H](O)[C@@H](O[C@H]9OC[C@@H](O)[C@@H](O)[C@@H]9O)[C@@H]8O)[C@@H](O)[C@@H]7O)C(C)(C)[C@@H]6CC[C@@]54C)[C@@H]3CC2(C)C)OC[C@@H](O)[C@H]1O | inactive |
| COCC(=O)Nc1ccc2c(c1)C(=O)N(C)C[C@@H](OC)[C@@H](C)CN(Cc1ccccc1F)[C@H](C)CO2 | inactive |
| CCN1CCN(C(=O)NC(C(=O)NC2C(=O)N3C(C(=O)O)=C(CSc4nnnn4C)CSC23)c2ccc(O)cc2)C(=O)C1=O (configuration not stated) | active |
| O=C(C[C@@H]1CC[C@H]2NC[C@@H](O)COC[C@@H]2O1)NCCN1CCCCC1 | inactive |
| COCCOC(=O)N1C(=O)[C@@]2(c3cc(C#CCCO)ccc31)[C@H](C(=O)N1CCc3cc(OC)c(OC)cc3C1)[C@H]1C(=O)O[C@H](c3ccccc3)[C@H](c3ccccc3)N1[C@@H]2c1ccccc1OCCO | inactive |
| CN1CCN(C(=O)C[C@@H]2CC[C@H](NC(=O)Cc3ccccn3)[C@@H](CO)O2)CC1 | inactive |
| CN1C[C@]2(CCN(C(=O)c3cn(CCN4CCNCC4)nn3)C2)OC1=O | inactive |
| O=C1c2ccccc2[C@@]2(Cc3ccccc3N(Cc3ccccc3)C2=O)[C@H](c2ccc(CO)cc2)N1Cc1ccccc1C(F)(F)F | inactive |
| COCC#Cc1cnc2c(c1)C(=O)N([C@H](C)CO)C[C@@H](C)[C@@H](CN(C)C(=O)Nc1cc(F)ccc1F)O2 | inactive |
| COc1cc2c(cc1OC)CC(=O)N(CCCN(C)CC1Cc3cc(OC)c(OC)cc31)CC2.Cl (configuration not stated) | inactive |
| CN(C)C(=O)c1cccc(-c2cccc(-c3nc(C(=O)NCc4ccccc4)cc4c3[C@@H](CCO)N([S@](=O)C(C)(C)C)C4)c2)c1 | inactive |
| C[C@@H]1CCCCO[C@H](CN(C)C(=O)NC2CCCCC2)[C@H](C)CN([C@@H](C)CO)C(=O)c2cc(NS(=O)(=O)c3ccccc3)ccc2O1 | inactive |
| C[C@@H]1CN([C@H](C)CO)C(=O)c2cccc(NC(=O)c3nc4ccccc4s3)c2O[C@@H]1CN(C)CC1CCCCC1 | inactive |
| O=C(O)c1cc2cccnc2[nH]c1=O | inactive |
| CCCN(C)C[C@H]1OCCCC[C@@H](C)Oc2ccc(NC(=O)Nc3ccc(OC)cc3)cc2C(=O)N([C@H](C)CO)C[C@@H]1C | inactive |
| NCC[C@@H]1CC[C@@H](NC(=O)C2CC2)[C@@H](CO)O1 | inactive |
| Cc1ccc(S(=O)(=O)N(C)C[C@H]2Oc3ccc(NS(=O)(=O)c4cccs4)cc3C(=O)N([C@H](C)CO)C[C@@H]2C)cc1 | inactive |
| C[C@@H]1CCCCO[C@H](CN(C)S(=O)(=O)c2cn(C)cn2)[C@H](C)CN([C@@H](C)CO)C(=O)c2cc(NC(=O)Nc3ccc(C(F)(F)F)cc3)ccc2O1 | inactive |

| Structure (SMILES) | growth inhibition call |
| --- | --- |
| C[C@@H]1CN([C@H](C)CO)C(=O)c2cc(NC(=O)Cc3ccccc3)ccc2O[C@@H](C)CCCCO[C@@H]1CN(C)C(=O)CCC(F)(F)F | inactive |
| CC(C)NC(=O)N(C)C[C@@H]1Oc2ccc(NC(=O)CCCN(C)C)cc2C(=O)N([C@H](C)CO)C[C@H]1C | inactive |
| C[C@H]1CCCCO[C@H](CN(C)CC2CC2)[C@@H](C)CN([C@@H](C)CO)C(=O)c2cc(NC(=O)Nc3ccc4c(c3)OCO4)ccc2O1 | inactive |
| Cc1noc(C)c1NC(=O)N[C@@H]1CC[C@@H](CC(=O)NCCCN(C)C)O[C@H]1CO | inactive |
| COc1ccc2c3c([nH]c2c1)[C@@H](CO)N(C[C@]13CN(Cc2ccccc2Cl)C1)S(=O)(=O)c1cn(cn1)C | inactive |
| O=C(CN1CCOCC1)NCC[C@@H]1CC[C@H](NC(=O)Cc2ccccn2)[C@H](CO)O1 | inactive |
| O=C(C1=C[C@H](c2coc3ccccc3c2=O)C[C@H](OCCCCO)O1)N1CCOCCOCCOCCOCC1 | inactive |
| COC(=O)C1=CO[C@@H](O[C@@H]2O[C@H](CO)[C@@H](O)[C@H](O)[C@H]2O)/C(=C\CO)[C@@H]1CC(=O)OCCc1ccc(O)cc1 | inactive |
| C[C@@H]1CN([C@@H](C)CO)C(=O)c2cccc(NC(=O)Nc3ccccc3)c2O[C@@H]1CN(C)Cc1ccc(-c2ccccc2)cc1 | inactive |
| C[C@@H]1CN([C@H](C)CO)C(=O)c2cc(NC(=O)C3CC3)ccc2O[C@H]1CN(C)Cc1ccc(-c2ccccc2)cc1 | inactive |
| COc1cccc(NC(=O)N(C)C[C@H]2OCc3ccccc3-c3c(n(C)c4ccccc34)C(=O)N([C@H](C)CO)C[C@@H]2C)c1 | inactive |
| CCOC(=O)c1nnn(CC(N)=O)c1C | inactive |
| COc1ccc(C#Cc2ccc([C@H]3[C@H]4CN(S(=O)(=O)c5cn(C)cn5)CCCCN4[C@H]3CO)cc2)cc1 | inactive |
| Nc1ccc(C(=O)N2CCOCC2)cc1 | inactive |
| Cc1cc(C)c(S(N)(=O)=O)cc1S(N)(=O)=O | inactive |
| CC(C)NC(=O)N(C)C[C@H]1Oc2ccc(NC(=O)CCC(F)(F)F)cc2CC(=O)N([C@@H](C)CO)C[C@@H]1C | inactive |
| NCCn1cccn1 | inactive |
| C[C@@H]1CN([C@@H](C)CO)C(=O)c2cc(N(C)C)ccc2O[C@@H](C)CCCCO[C@H]1CN(C)Cc1ccc(C(=O)Nc2ccccc2N)cc1 | inactive |
| C[C@@H]1CCCCO[C@H](CN(C)C(=O)CCCN(C)C)[C@@H](C)CN([C@@H](C)CO)C(=O)c2cc(NC(=O)Nc3ccc(F)cc3)ccc2O1 | inactive |
| C[C@H](CO)N1C[C@H](C)[C@@H](CN(C)CC2CCCCC2)OCCCC[C@H](C)Oc2ccc(NC(=O)Nc3ccccc3)cc2C1=O | inactive |
